The record followed here is PMC4344510 (Nucleic Acids Research, 2015).

This data set deals with the molecule itself. Put plainly: crystal structure.

B1: Sm domain of Escherichia coli Hfq ([…]) (domain or fragment)
chain: not shown
As for B1, the “stoichiometry N” value came to 6.
